In the supplement of paper PMC5499739:
The full ranking holds about 16,000 sequences; the median of “Z-score” is about -0.37, and the highest 2% start at about 3.1. The list shows a part of the results.

These sequences were tested on RBM10 RRM1-ZnF-RRM2 (GST-tagged construct) (assay: RNAcompete 7-mer binding Z-score; higher = stronger binding preference).
In short: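 Each heptamer motif was given a one-sided Z-score for enrichment across the probes that contained it. GST-tagged RBM10 constructs (20 pmol) were combined with 1.5 nmol of a designed pool of 241 399 RNAs of up to 41 nt, transcribed from microarray-derived DNA templates. Binding took place in 1 ml Hepes pH 7.8 buffer containing KCl, NaCl, glycerol, DTT, BSA and glutathione Sepharose beads for 30 min at 4°C. After four 2-min washes at 4°C, bound RNA was identified by microarray hybridisation.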

| Sequence | RNAcompete 7-mer binding Z-score |
| --- | --- |
| AGUCGUG | 0.366 |
| AAGAGGU | 1.66 |
| UACCCCU | -0.65 |
| AUUCUAC | -0.766 |
| CUUAGGA | 0.122 |
| CUAGUAG | -0.256 |
| GAGUGAC | 0.905 |
| CGCGUAG | 0.0568 |
| CAUCCGU | -0.792 |
| UCCCGUA | -0.431 |
| GAGCAAA | 0.534 |
| UCACGAA | -0.439 |
| GCCAAGA | -0.329 |
| CCGCCUU | -0.941 |
| GCAGUAU | 0.0859 |
| CAAGUGU | -0.103 |
| UGUAUGU | -0.187 |
| AUUUAGU | -0.304 |
| AGGUUUA | 0.432 |
| GUGUUCG | -0.122 |
| UACGCAA | -0.442 |
| UUCGCCG | -0.643 |
| CGUCGAU | -0.253 |
| AGCAAUA | -0.0343 |

| Sequence | RNAcompete 7-mer binding Z-score |
| --- | --- |
| AGACGAU | -0.14 |
| GGGCCCG | 0.195 |
| CGGCGGC | 0.264 |
| AAGACGU | 0.00944 |
| AUUCAGG | 0.589 |
| CAAUGUG | 0.865 |
| GCAUCAU | -0.428 |
| UCGAGCC | -0.694 |
| AGAGAGU | 0.785 |
| UGCAACG | -0.14 |
| CCCUACA | -0.908 |
| UAUAGAC | -0.209 |
| UCGGUCC | -0.533 |
| GAUAUCU | -0.562 |
| UCGAAGG | 0.927 |
| UUGUGCU | -0.588 |
| GAAGGUU | 2.96 |
| CACUGCA | -0.57 |
| CAACACC | -0.398 |
| UGACGAA | 0.217 |
| CACGUCC | -0.785 |
| UCGAGCU | -0.413 |
| GUUUCUG | -0.329 |
| GAGAGAA | 0.833 |

| Sequence | RNAcompete 7-mer binding Z-score |
| --- | --- |
| AAUCACU | -0.428 |
| UGGGUCA | 1.71 |
| AAUGGCU | 0.37 |
| GGCUAGC | 0.396 |
| GUGUCUA | -0.457 |
| AUGUCCU | -0.77 |
| GUGCCGA | 0.0422 |
| UCGAUAU | -0.475 |
| GAGCAGA | 0.894 |
| AUGUUGA | -0.125 |
| AAGAACA | 0.21 |
| UACGGCG | 0.148 |
| UCCAACC | -0.857 |
| GAAGGCG | 2.66 |
| GAGAUCU | -0.398 |
| CGCACAG | -0.34 |
| CCGUCGG | -0.147 |
| GCGUCAA | -0.0707 |
| AUCUUCG | -0.839 |
| UUGCGGA | 0.253 |
| UUCUGAA | -0.632 |
| GUAUUUU | -0.668 |
| GAGAUUG | 0.643 |
| UGCUCUA | -0.887 |

| Sequence | RNAcompete 7-mer binding Z-score |
| --- | --- |
| CGGCUUG | -0.366 |
| UAAGUUA | -0.0816 |
| GAACUCU | -0.792 |
| GUCUUUG | -0.599 |
| UUCUCAA | -0.704 |
| UCGGGUC | 0.512 |
| CUAUAGU | -0.515 |
| AGGUAGU | 1.19 |
| CUUUACC | -0.828 |
| CGAAACC | -0.482 |
| UCUACAA | -0.675 |
| ACUAACG | -0.409 |
| AAAUUUG | -0.307 |
| UUCCCGC | -0.846 |
| AAGUGAC | 0.902 |
| AAAGGUA | 3.53 |
| CCUAGAG | -0.497 |
| GGAGUCA | 1.05 |
| AUUAGGU | 1.13 |
| GGCCCGC | -0.675 |
| AGUCGAC | 0.00944 |
| AUAUCCG | -0.697 |
| AAAGUCU | -0.628 |
| UGUCUGU | -0.628 |

| Sequence | RNAcompete 7-mer binding Z-score |
| --- | --- |
| AUACGUC | -0.42 |
| CCGAAGA | -0.581 |
| AGAAGCA | 0.0349 |
| UGAGUCC | -0.398 |
| UAGGUGG | 2.82 |
| CUCACUA | -0.803 |
| GAGGAGG | 2.99 |
| GUAGUGU | 0.909 |
| CUUGCGC | -0.774 |
| UGUCUUG | -0.675 |
| UCACUAU | -0.65 |
| CUACUCC | -0.854 |
| CUUCCAA | -0.825 |
| UUGCGCG | -0.26 |
| GGAUGUU | 0.567 |
| UGGCCAC | -0.409 |
| ACUAUCA | -0.723 |
| AGUUUGC | -0.38 |
| GGAUGUA | 1.78 |
| AAAUAAU | -0.362 |
| UUGUUCU | -0.803 |
